Data reported in paper PMC8666589 (Frontiers in Oncology, 2021).

Tests used:
PD-L1 [1] = molecular target: T1, PD-L1 (human, UniProt Q9NZQ7 19-134); assay: ELISA; binding ELISA of rU1 snRNPA or variants on PD-L1; curve fitting with GraphPad Prism 8.0; done in double; details in the supplementary materials (not shown); details: both partners purified
T1 construct: PD-L1, human; In the SERS assay PD-L1 was carried on MNs (MNs@PD-L1); Source and limits of the protein may be in the supplementary materials; also called MNs@PD-L1; hPD-L1

PD-L1 [2] = molecular target: T1, PD-L1; assay: ELISA; competitive ELISA: inhibition of PD-1/PD-L1 by rU1 snRNPA or variants; curve fitting with GraphPad Prism 8.0; done in double; details in the supplementary materials (not shown); details: both partners purified
T1 sequence (Q9NZQ7 19-134): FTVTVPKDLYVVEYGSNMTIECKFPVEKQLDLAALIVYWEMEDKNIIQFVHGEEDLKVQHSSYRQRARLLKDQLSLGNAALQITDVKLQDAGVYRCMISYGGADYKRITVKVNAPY

| Binder | EC50 (PD-L1 [1]) [nM] | IC50 (PD-L1 [2]) [nM] |
| --- | --- | --- |
| recombinant full-length U1 small nuclear ribonucleoprotein A (natural protein, U1 small nuclear ribonucleoprotein A, human; also called rU1 snRNPA; U1 snRNPA) not shown | 55.2 | 18.1 |
| rU1 snRNPA variant A32D (natural protein, U1 small nuclear ribonucleoprotein A, human, full-length, with the single-point mutation A32D; source: E. coli, expressed and purified in the same way as the wild type) not shown | 51.4 | 14.3 |
